# In the supplement of paper PMC9135407:
# Several values for one entry are separate records, joined by “and”; a condition that tells them apart may be missing. Equal values may be shown once. Where a name gives a salt, the structure may show the parent alone. The campaign covered roughly 5,800 compounds. About 620 (11%) showed activity.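 The calls were made as follows: active = score above a cut-off or among the top three wells of a plate; in these data no inactive exceeds 0.85.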 The list shows a part of the results, in another mix than the full data.
# Tested on: primary human hepatic stellate cells (donor 1)
# Test: scaled lipid accumulation score (0 = DMSO-like, 1 = nortriptyline-like); higher = stronger HSC inactivation (lipid re-accumulation), active = hit call of the paper
# Settings: 48 h
# [1] = library stock concentration: 3.33 mM
# [2] = library stock concentration: 10 mM
# [3] = library stock concentration: 1 mM
smiles,measurement,setting,value
Cc1cccc([C@H](C)c2c[nH]cn2)c1C [Dexmedetomidine],scaled lipid accumulation score,[1],inactive: 0.005
same,scaled lipid accumulation score,[2],inactive: 0.007
CC1(C(=O)O)C2CCC(O2)C1(C)C(=O)O (stereo not given) [Cantharidic Acid],scaled lipid accumulation score,[2],inactive: ≤ 0
CCCN(CCC)[C@@H]1CCc2c(OC)cccc2[C@@H]1C [(+)-UH 232 maleate],scaled lipid accumulation score,[2],inactive: 0.107
CC(C)(C)NCC(O)c1ccccc1Cl (stereo not given) [Tulobuterol hydrochloride],scaled lipid accumulation score,[2],inactive: 0.09
CC(C)(C)NCC(O)c1ccccc1Cl (stereo not given) [Tulobuterol],scaled lipid accumulation score,library stock concentration: 8.8 mM,inactive: ≤ 0
same,scaled lipid accumulation score,[2],inactive: ≤ -0.027
CCC(C)(C)O,scaled lipid accumulation score,[2],inactive: ≤ 0
CN(C)C(=S)SSC(=S)N(C)C [Thiram],scaled lipid accumulation score,[2],inactive: 0.163
CO[C@]12C[C@@H](COC(=O)c3cncc(Br)c3)CN(C)[C@@H]1Cc1cn(C)c3cccc2c13 [Nicergoline],scaled lipid accumulation score,,inactive: ≤ 0
same,scaled lipid accumulation score,[2],inactive: 0.682 and inactive: 0.399
"CC(=O)OCC1=C(C(=O)O)N2C(=O)[C@@H](N)[C@H]2SC1 [Cephalosporanic acid, 7-amino]",scaled lipid accumulation score,,inactive: ≤ 0
C[C@H]1C(=O)O[C@@H]2CCN3CC=C(COC(=O)[C@](C)(O)[C@]1(C)O)[C@H]23 [Monocrotaline],scaled lipid accumulation score,,inactive: 0.056
same,scaled lipid accumulation score,[2],inactive: ≤ 0
CCCN(CCC)[C@@H]1CCc2cccc(O)c2C1 [R-(+)-8-Hydroxy-DPAT hydrobromide],scaled lipid accumulation score,[2],inactive: ≤ -0.07
C#CCN[C@H](C)Cc1ccccc1 [R-(-)-Desmethyldeprenyl hydrochloride],scaled lipid accumulation score,[2],inactive: ≤ 0
C[C@@]12N[C@@H](Cc3ccccc31)c1ccccc12 [(-)-MK-801 hydrogen maleate],scaled lipid accumulation score,[2],inactive: 0.313
C[C@@]12N[C@@H](Cc3ccccc31)c1ccccc12 [(-)-MK 801 Maleate],scaled lipid accumulation score,[1],inactive: 0.03
same,scaled lipid accumulation score,[2],inactive: 0.196
C[C@@]12N[C@@H](Cc3ccccc31)c1ccccc12 [(-)-MK 801 hydrogen maleate],scaled lipid accumulation score,,inactive: ≤ 0
C[C@@]12N[C@@H](Cc3ccccc31)c1ccccc12 [(-)-MK 801 maleate],scaled lipid accumulation score,[2],inactive: 0.167
CC(CC(C(N)=O)(c1ccccc1)c1ccccc1)N(C)C (stereo not given) [Aminopentamide],scaled lipid accumulation score,library stock concentration: 5.1 mM,inactive: 0.04
"CCCN1CCc2cc(O)cc3c2[C@H]1Cc1ccc(O)c(O)c1-3 [R(-)-2,10,11-Trihydroxy-N-propylnoraporphine hydrobromide]",scaled lipid accumulation score,[2],inactive: ≤ -0.07
CN1C(=O)CN=C(c2ccccc2)c2cc([N+](=O)[O-])ccc21 [Nimetazepam],scaled lipid accumulation score,[2],inactive: ≤ 0
C[N+]12CCC(CC1)C(OC(=O)C(O)(c1ccccc1)c1ccccc1)C2 (stereo not given) [Clidinium bromide],scaled lipid accumulation score,,inactive: ≤ 0
same,scaled lipid accumulation score,[2],inactive: ≤ 0
OC[C@@H](O)[C@H]1O[C@@H]2O[C@H](C(Cl)(Cl)Cl)O[C@@H]2[C@H]1O,scaled lipid accumulation score,[2],inactive: ≤ 0
CC(=O)OC12COC1CC(O)C1(C)C(=O)C(O)C3=C(C)C(O)CC(O)(C(OC(=O)c4ccccc4)C21)C3(C)C (stereo not given) [10-Deacetylbaccatin-III],scaled lipid accumulation score,[1],inactive: 0.014
same,scaled lipid accumulation score,[2],inactive: ≤ 0
CCCCC/C=C\C/C=C\C/C=C\C/C=C\CCCC(=O)Nc1cccc(O)c1 [N-(3-hydroxyphenyl)-Arachidonoyl amide],scaled lipid accumulation score,[3],inactive: 0.053
C[C@]12CC[C@H]3[C@@H](CCC4=CC(=O)CC[C@@H]43)[C@@H]1CC[C@@H]2O [19-Nortestosterone],scaled lipid accumulation score,[2],inactive: 0.291
C[C@]12CC[C@H]3[C@@H](CCC4=CC(=O)CC[C@@H]43)[C@@H]1CC[C@@H]2O [Nandrolone],scaled lipid accumulation score,,inactive: 0.209
CC(C)[C@@H]1NC(=O)[C@H](C)OC(=O)[C@@H](C(C)C)NC(=O)[C@@H](C(C)C)OC(=O)[C@H](C(C)C)NC(=O)[C@H](C)OC(=O)[C@@H](C(C)C)NC(=O)[C@@H](C(C)C)OC(=O)[C@H](C(C)C)NC(=O)[C@H](C)OC(=O)[C@@H](C(C)C)NC(=O)[C@@H](C(C)C)OC1=O [Valinomycin],scaled lipid accumulation score,library stock concentration: 4.5 mM,inactive: 0.447
N#Cc1ccc(N2CCN(C(=O)COc3ccc4[nH]cc(CCN)c4c3)CC2)cc1 [Donitriptan hydrochloride],scaled lipid accumulation score,[2],inactive: ≤ 0
"CN(C(=O)Cc1ccc(Cl)c(Cl)c1)[C@H](CN1CCCC1)c1ccccc1.Cl [ICI-199,441 hydrochloride]",scaled lipid accumulation score,[2],active: 1.58
"O=[N+]([O-])c1ccc2nc(N3CCNCC3)ccc2c1 [Quipazine, 6-nitro-, maleate]",scaled lipid accumulation score,[2],inactive: 0.416
CN1Cc2ccccc2[C@@H]2c3cccc4[nH]cc(c34)C[C@H]21,scaled lipid accumulation score,[2],inactive: 0.621
CC[C@H]1CN2CC[C@H]1C[C@@H]2[C@@H](O)c1ccnc2ccc(OC)cc12 [Hydroquinidine],scaled lipid accumulation score,[2],inactive: ≤ 0
c1ccc2c(N3CCNCC3)cccc2c1 [1-(1-Naphthyl)piperazine hydrochloride],scaled lipid accumulation score,[2],inactive: 0.407
COc1ccc(CN2CCNCC2)c(OC)c1OC [Trimetazidine dihydrochloride],scaled lipid accumulation score,,inactive: 0.013
COc1ccc2c(c1)c(CCN1CCOCC1)c(C)n2C(=O)c1cccc(Cl)c1Cl,scaled lipid accumulation score,[2],inactive: 0.325
O=C(N[C@H]1CN2CCC1CC2)c1cc2ccoc2cn1,scaled lipid accumulation score,[2],inactive: ≤ -0.055
CN1C2CCC1CC(OC(c1ccc(F)cc1)c1ccc(F)cc1)C2.Cl (stereo not given),scaled lipid accumulation score,[2],active: 1.29
C=C(C)[C@H]1CN[C@H](C(=O)O)[C@H]1CC(=O)O [(-)-(.alpha.)-Kainic Acid (hydrate)],scaled lipid accumulation score,[3],inactive: ≤ 0
C=C(C)[C@H]1CN[C@H](C(=O)O)[C@H]1CC(=O)O [Kainic acid],scaled lipid accumulation score,[2],inactive: ≤ -0.055 and inactive: 0.031 and inactive: ≤ -0.009
c1ccc(CCCCN2CCC(c3ccccc3)CC2)cc1 [4-PPBP maleate],scaled lipid accumulation score,[2],inactive: 0.63
Cc1cc(O)ccc1Cl [Chlorocresol],scaled lipid accumulation score,[1],inactive: ≤ 0
same,scaled lipid accumulation score,[2],inactive: ≤ -0.001 and inactive: ≤ 0
same,scaled lipid accumulation score,library stock concentration: 14 mM,inactive: ≤ -0.001
C[C@H](N)Cc1cnc[nH]1 [(S)-(+)-a-Methylhistamine dihydrobromide],scaled lipid accumulation score,[2],inactive: 0.003
